{"source": "PubChem BioAssay (NCATS)", "note": "Inconclusive means that the source gave no clear call. Such entries were picked first, then a sample of the others. Potencies of inconclusive entries are left out as doubtful fits. Activity calls are given as the source filed them. Calls follow the shape of the dose curve; as a rule, active = well fitted inhibition curve with a large enough effect; inconclusive = small, poorly fitted or top-dose-only effect; inactive = flat fitted curve, though single readings scatter. Potency is read from the fitted curve at half-maximal effect; tags tell the direction and shape of the fitted curve."}
{"test_system": "Nanoluciferase (engineered Oplophorus gracilirostris luciferase)", "test": "Primary Nanoluciferase (NLuc) qHTS assay for identification of artifact compounds. (AID 1845222)", "conditions": "NLuc-conditioned medium, Nano-Glo luminescence, 5 min; series mostly up to 54.1 µM; activity, negative = inhibition: at the top concentration", "text": "PI: Alexander Tropsha Ph.D.\nUNC Eshelman School of Pharmacy\nUniversity of North Carolina, Chapel Hill, North Carolina\nHits from high-throughput screening (HTS) of chemical libraries are often false positives due to their interference with the assay detection technology. In response to this problem, we generated the largest publicly available library of chemical liabilities and developed a free webtool to predict HTS artifacts, both of which are described herein. More specifically, we generated, curated, and integrated HTS datasets for thiol reactivity, redox activity, and luciferase (firefly and nano) activity. Using these curated datasets, we developed and validated several Quantitative Structure-Interference Relationship (QSIR) models to predict nuisance behavior. […] These models were employed for virtual profiling of the National Center for Advancing Translational Science's (NCATS) in-house library, and 256 compounds for each assay were selected for the experimental validation of nuisance behavior. The BA for these external predictions ranged from 58 to 78% for compounds within the applicability domains of the models. […] The models developed in this study, along with aggregation models previously developed by our group (SCAM Detective) were implemented in \"Liability Predictor,\" an online tool which may be used as part of chemical library design or for triaging HTS hits. Both the models and the curated datasets are publicly available at https://liability.mml.unc.edu/.\nSEQUENCE No. (e.g., 1, 2, 3, etc.); […] (e.g., Cells, Incubation, Reagent, etc.); VALUE; DESCRIPTION.\n1; Reagent; 2 uL; Nanoluciferase media.\n2; Compounds and control; 16 nL; Kalypsis pin tool (Wako USA) equipped with a 1536-well pin head.\n4; Reagent; 2 uL; Luciferase enzyme.\n6; Detection; Luminescence, ViewLux microplate reader.\nNOTES (numbers refer to Sequence numbers above)\n1. Medium was collected from the culture flasks of NLuc-expressing S16 cells (80% confluent) prior to cell plating, filtered through a 0.22um filter, and frozen at -20C prior to use. Media was diluted (1:55) and 2 uL was dispensed into all wells of a 1536-well assay plate (solid-bottom white plate; Greiner Bio One, Monroe, NC).\n2. A Wako Pin-tool (Wako Automation, Richmond, VA) was used to transfer 16 nL of compounds (consisting of 7-plates in qHTS format, final concentration range 18.3 nM to 114 uM) or control Cilnidipine (final concentration range 623 nM to 80 uM).\n3. 15 min. incubation at room temperature protected from light.\n4. 2 uL of NLuc substrate (1:100 in Nano-Glo luciferase buffer; Nano-Glo luminescence assay, Promega, Madison, WI) was dispensed for a final assay volume of 4 uL.\n5. Plates were centrifuged (121xg, 15 seconds) and incubated for 5 minutes.\n6. Samples were read for luminescence on a ViewLux CCD imager (PerkinElmer). Data were normalized to no-enzyme (0% activity) and no-inhibitor (DMSO; 100%) controls and the resulting percent inhibition data were fitted to a 4-parameter Hill equation using NCATS in-house software."}
{"smiles": "Cc1cc(Cl)ccc1COc1ccnn1-c1cc(C(=O)O)ccn1", "Potency": "inconclusive [inhibitor, single point]"}
{"smiles": "COc1cc(/C=C/C(=O)OC2CC3CCC2(C)C3(C)C)ccc1O", "note": "(stereo not given)", "activity, negative = inhibition": "inactive: 2.15%"}
{"smiles": "COc1cc(Nc2ccc([N+](=O)[O-])cc2C(=O)O)cc2ccccc12", "Potency": "inconclusive [inhibitor, partial curve]"}
{"smiles": "C/C=C/C1=CC2=C(CO1)C(=O)C(C)(O)C(OC(=O)c1c(C)cc(OC)cc1O)C2", "note": "(stereo not given)", "activity, negative = inhibition": "inactive: -6.71%"}
{"smiles": "O=C(O)CCc1nc(-c2ccccc2)c(-c2ccccc2)o1", "Potency": "inconclusive [inhibitor, single point]"}
{"smiles": "CC(C)c1cc2c(c(O)c1O)[C@@]13CCCC(C)(C)C1[C@@H](O)[C@@H]2OC3=O", "note": "(stereo not given in full)", "Potency": "inconclusive [inhibitor, partial curve]"}
{"smiles": "COc1cccc(OC)c1-c1ccc(C[C@H](NC(=O)c2c(Cl)cccc2Cl)C(=O)O)cc1", "Potency": "inconclusive [inhibitor, partial curve]"}
{"smiles": "CC1CC(=O)C2=C(O1)OC1(C)CCC3C(C)(C)C4OC4C(=O)C3(C)C1C2", "note": "(stereo not given)", "activity, negative = inhibition": "inactive: 1.68%"}
{"smiles": "COc1ccc(NC(=O)c2ccc(-c3ccc(C(N)=O)cc3C)cc2)cc1N1CCN(C)CC1", "Potency": "inconclusive [inhibitor, partial curve]"}
{"smiles": "COc1cc(Br)c(S(=O)(=O)Nc2ccc(C(F)(F)F)c(O[C@@H]3CCN(C)C3)c2)cc1OC", "Potency": "inconclusive [inhibitor, partial curve, poor fit]"}
{"smiles": "C[C@H](NC(=O)CCc1nc2ccccc2c(=O)[nH]1)c1ccccc1", "Potency": "inconclusive [inhibitor, partial curve, poor fit]"}
{"smiles": "Cc1noc2c1-c1ccccc1C(c1ccc(Cl)cc1)=N[C@H]2CC(N)=O", "activity, negative = inhibition": "inactive: -0.787%"}
{"smiles": "CCNC(=O)NCCCOc1cccc(CN2CCCCC2)c1", "activity, negative = inhibition": "inactive: -0.85%"}
{"smiles": "O=C(O)Cc1ccccc1Oc1ccc(Cl)cc1Cl", "Potency": "inconclusive [inhibitor, partial curve, poor fit]"}
{"smiles": "O=C(Cn1c2ccccc2c2nc3n(c(=O)c21)CCS3)N1CCCC1", "Potency": "inconclusive [inhibitor, partial curve]"}
{"smiles": "C=C[C@@]12COC(=O)C(=C)C1[C@@H](O)[C@H](C(=C)C(=O)OC)[C@@H](OC(=O)C(=C)CO)C2", "note": "(stereo not given in full)", "activity, negative = inhibition": "inactive: 1.52% [at 25.7 µM]"}
{"smiles": "O=C(N[C@H](Cc1ccccc1)C(=O)O)c1sc2cc(F)ccc2c1Cl", "Potency": "inconclusive [inhibitor, partial curve]"}
{"smiles": "CCC(C)/C=C(C)/C=C/C1=CC2=C(Cl)C(=O)C(C)(OC(C)=O)C(=O)C2=CN1C(CCC(=O)O)C(=O)O", "note": "(stereo not given)", "Potency": "inconclusive [inhibitor, partial curve, poor fit]"}
{"smiles": "CN1[C@@H]2CC[C@H]1CC(OC(=O)c1c[nH]c3ccccc13)C2", "note": "(stereo not given in full)", "activity, negative = inhibition": "inactive: 4.45%"}
{"smiles": "O=C(Nc1ccccc1)Nc1ccc(-c2ccc(C(=O)C3CCCC3C(=O)O)cc2)cc1", "note": "(stereo not given)", "activity, negative = inhibition": "inactive: 0%"}
{"smiles": "COc1cc(CO)cc(OC)c1O[C@@H]1O[C@H](CO)[C@@H](O)[C@H](O)[C@H]1O", "activity, negative = inhibition": "inactive: 1.54%"}
{"smiles": "CCCCS(=O)(=O)Nc1ncnc(OCCOc2ncc(Br)cn2)c1-c1ccc(Br)cc1", "Potency": "inconclusive [inhibitor, partial curve]"}
{"smiles": "CC(C(=O)Nc1cc(C#N)ccc1CCCC(=O)O)c1ccc(F)c2ccccc12", "note": "(stereo not given)", "Potency": "inconclusive [inhibitor, partial curve]"}
{"smiles": "CCOc1nc2cccc(C(=O)O)c2n1Cc1ccc(-c2ccccc2-c2noc(=O)[nH]2)cc1", "Potency": "active: 21.3 µM"}
{"smiles": "COc1ccc(S(=O)(=O)Nc2nc(-c3cccc([N+](=O)[O-])c3)cs2)cc1OC", "Potency": "active: 9.53 µM"}
{"smiles": "CN[C@@H]1[C@H](O[C@H]2[C@H](O[C@@H]3[C@@H](O)[C@H](O)[C@@H](N=C(N)N)[C@H](O)[C@H]3N=C(N)N)O[C@@H](C)[C@]2(O)CO)O[C@@H](CO)[C@H](O)[C@H]1O", "activity, negative = inhibition": "inactive: -1.06%"}
{"smiles": "CCOc1ccc(-c2cc(NC(=O)c3c(F)cccc3F)c(C(=O)O)s2)cc1", "Potency": "active: 12 µM"}
{"smiles": "CCCCc1nc(C)c(CC(=S)N(C)C)c(=O)n1Cc1ccc(-c2ccccc2-c2nn[nH]n2)cc1", "Potency": "active: 16.9 µM"}
{"smiles": "Cc1ccccc1C(=O)N1CC/C(=N\\OS(=O)(=O)O)c2ccc(Cl)cc21", "Potency": "active: 26.9 µM"}
{"smiles": "O=C1C[C@@]2(C(=O)N1)C(=O)N(Cc1ccc(Br)cc1F)C(=O)c1cccn12", "Potency": "inconclusive [inhibitor, partial curve, poor fit]"}
{"smiles": "CCOc1c2c(c(OCC)c3ccccc13)C(=O)N(c1ccc(CC(=O)NS(=O)(=O)c3ccccc3)cc1)C2", "Potency": "active: 12 µM"}
{"smiles": "Cc1oc2ccccc2c1CNC(=O)NCc1cccs1", "Potency": "inconclusive [inhibitor, partial curve, poor fit]"}
{"smiles": "CC(=O)c1c(O)cc2cccc3c2c1CC(C)(O)O3", "note": "(stereo not given)", "activity, negative = inhibition": "inactive: -11.1%"}
{"smiles": "CCCCc1nc(Cl)c(CO)n1Cc1ccc(-c2ccccc2-c2nnn[nH]2)cc1", "Potency": "inconclusive [inhibitor, partial curve, poor fit]"}
{"smiles": "CCC(C)C1NC(=O)C2C(C)CCN2C(=O)C(CC(O)CO)OC(=O)CCNC(=O)C(C)N(C)C(=O)C(C(C)C)N(C)C1=O", "note": "(stereo not given)", "activity, negative = inhibition": "inactive: 1.48% [at 25.7 µM]"}
{"smiles": "Cc1nn(C)c2c1C(c1ccc(C(F)(F)F)cc1)C(C#N)=C(N)O2", "note": "(stereo not given)", "Potency": "inconclusive [inhibitor, partial curve, poor fit]"}
{"smiles": "C=C1C[C@]23C[C@H]1CC[C@H]2C1=C[C@H]2OC(=O)[C@@](C)([C@H]1[C@@H]3C(=O)O)[C@H]2O", "activity, negative = inhibition": "inactive: 1.85%"}
{"smiles": "C[C@]12CC/C(=N\\OCC(=O)O)C=C1CC[C@@H]1[C@@H]2[C@@H](O)C[C@@]2(C)[C@H]1CC[C@]2(O)C(=O)CO", "activity, negative = inhibition": "inactive: 2.37%"}
{"smiles": "Cc1ccn(-c2cc(Cl)ccc2[C@@H](Oc2cc(-c3ccc(C[C@H](N)C(=O)O)cc3)nc(N)n2)C(F)(F)F)n1", "Potency": "inconclusive [inhibitor, full curve]"}
{"smiles": "COC(=O)c1cc(CN2CCN(C(=N)N)CC2)cc(C(=O)N2CCN(C(=O)c3ccc(C(=N)N)cc3)CC2)c1", "activity, negative = inhibition": "inactive: 0%"}
